± gives the standard deviation of the averaged measurements. Some of the results follow.
Tested on: PfAP2-LT AP2 domain (GST-tagged)
Test: gcPBM binding intensity (ln(normalized median fluorescence intensity)); higher = stronger DNA binding
Summary of the method: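 After 1 h on an Agilent 4 × 180k array of primer-extended double-stranded 36-bp intergenic genomic probes and negative controls, bound GST-tagged P. falciparum DNA-binding domains were detected with Alexa488 anti-GST antibody and scanned at 488 nm. The domains had been expressed in E. coli, and binding took place in 1× PBS with 1% milk, 0.2 mg/ml BSA, 0.5% salmon testes DNA and 0.03% Triton X-100. Binding intensity is the highest Masliner-normalised natural-log median intensity across replicate spots of either probe orientation.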

| Sequence | gcPBM binding intensity (ln) |
| --- | --- |
| TTCGTATATTATTAATGTACATTATAAAATCAATAT [XGTACX_site5751] | 8.54 ± 0.42 |
| AAAAAAAAAAAAAAAAAAAAAAAAAAAATTCTATAT [GTGCAC_negctrl_site468] | 8.885 ± 0.021 |
| AAGGCATACAATACCTGTACGCAACCTTAAAAAGAA [XGTACX_site6070] | 9.02 ± 0.59 |
| TATATATATATATATGGTACAGTTTATGCCTTTTAA [XGTACX_site6695] | 9.58 ± 0.3 |
| ATTTTCATGATAAAGGTGCAATTATTTTTATAAGAA | 8.43 ± 0.42 |
| TATAATATATACAAATGTACATATATATATATATAT [XGTACX_site4559] | 9.57 ± 0.15 |
| TTATTTATAATATATACACACTAACATTATTTATCC [CACACA_site4835] | 8.8 ± 0.51 |
| AGATATTTCATTTAAAGTACATTCTTTATCACATAA [XGTACX_site6731] | 8.46 ± 0.52 |
| CACACGCACAAAAACACACACAAAGGTGTTCTTATA [CACACA_site6724] | 9.38 ± 0.37 |
| TTATTTTTTTTTTTTCGTACTTATTTATCTTGGTAT [XGTACX_site78] | 8.67 ± 0.49 |
| TTTTTATTAATAGATATAAATATATAATATGAATGT [TGCATGCA_negctrl_site309] | 8.53 ± 0.49 |
| ATATATATATATATTTGTACAGATTTATATTATAAT [XGTACX_site7612] | 9.01 ± 0.36 |
| GAAAATTTAATATAGAACGAAAGCATACACATATAT [GTGCAC_negctrl_site424] | 8.9 ± 0.44 |
| AAATATTATAGCACCACACACTTATTTTATATATAT [CACACA_site5281] | 9.07 ± 0.33 |
| CCATATAATATGAACAGTACACACAAAATAAATTCG [XGTACX_site7590] | 9.14 ± 0.41 |
| AATATAAAAAAAAAATGTACATATTATATATATATA [XGTACX_site5113] | 8.88 ± 0.38 |
| AAAAATTTTTTTTCATTTGTTTTTATTCCGTAAAAA [CACACA_negctrl_site1217] | 8.23 ± 0.47 |
| ACCGAAGGAATTTATAGTACACATCATAAATAAATT [XGTACX_site4100] | 8.76 ± 0.48 |
| TATAATATAAAATAATGTACTTTGAAATATGACATA [XGTACX_site3579] | 8.49 ± 0.4 |
| AGTTTGATTTTTTCTTATAATATATTATTATATATT [CACACA_negctrl_site376] | 8.9 ± 0.46 |
| GGGGTATCTTCCTATGCACACTTGTTATGTACTAAC [CACACA_site4610] | 9.36 ± 0.42 |
| TTTTTGTTTTTGTTTTGTACTCATACATACTATCAT [XGTACX_site4210] | 8.97 ± 0.44 |
| CTTTTATTAAAATTCACACACATAAATTTTTATAAA [CACACA_site1993] | 8.61 ± 0.4 |

| Sequence | gcPBM binding intensity (ln) |
| --- | --- |
| ATATATACGTATGAATGTATATTTGTTTGATTTTTT [CACACA_negctrl_site835] | 8.73 ± 0.46 |
| ATATGTGATTTCTAATGTACACAAAAAAAAAAAAAA [XGTACX_site7701] | 8.72 ± 0.45 |
| TCTTCAAACAAAAAAAATAATAAAAAGTACAAAATG [CACACA_negctrl_site363] | 8.64 ± 0.45 |
| TTATGTCATAAATGCACACATATATAAATACAGATA [CACACA_site4959] | 9.04 ± 0.33 |
| TATATAAGGATATATACACACATATAGGTATTTATA [CACACA_site7092] | 8.96 ± 0.42 |
| TCAGGAATATAAAGTGCACACATAATTTGGGGGCAA [CACACA_site7974] | 9.34 ± 0.4 |
| AATGATATTATCTCTTCACACACTCACATACAGACA [CACACA_site8335] | 9.12 ± 0.3 |
| AATATGATTATTACCCGTACATATTACCTTATGGTA [XGTACX_site1714] | 8.85 ± 0.42 |
| TTTTAAAAAAATAAAAAATAATAAAAAAAATAAAAA [CACACA_negctrl_site1693] | 8.21 ± 0.47 |
| AAAAATAAATAAAGTGGTACATAAAAAAGAGAAATT [XGTACX_site874] | 9.01 ± 0.54 |
| GTGCATATGTAGATATGTACATATTTATTTATTATT [XGTACX_site7343] | 8.89 ± 0.31 |
| TTTACAGATACATTCACACATAAATTCATGTATAAT [CACACA_site5387] | 8.78 ± 0.37 |
| ATATATAATTTTTGTTGTACATTATAAAAATAATTA [XGTACX_site2738] | 8.29 ± 0.21 |
| ATTGTTATGAGAACAGCACACAAGCTACATCATATA [CACACA_site8192] | 8.96 ± 0.36 |
| GCGGCGGTATCATGCACACGTATATATTGTAACAGT [CACACA_site4958] | 9.43 ± 0.43 |
| TCATTGAAAAAAATGTGTACTCATCAAGTATATATT [XGTACX_site6430] | 8.69 ± 0.43 |
| ATTATATAATTGTCTTCACACACACCGATATATATA [CACACA_site8883] | 9.58 ± 0.38 |
| ATAAGAAAAAAGAACTGTACTAATAAAATATAAAAA [XGTACX_site3715] | 8.65 ± 0.59 |
| ATACATAAAATTAAAACACACATTTGATTAAATACG [CACACA_site7088] | 8.92 ± 0.4 |
| ATCAAGCGCAATGTGGTGCGTAAATTTTGTATTATA | 8.87 ± 0.45 |
| GTCTAAGCTTATAGGCGTACACATGAATATGGATGT [XGTACX_site2439] | 9.04 ± 0.4 |
| GGATTTATTATATATACACACATACATATATATATA [CACACA_site8669] | 9.12 ± 0.18 |

Reference: the supplement of paper PMC11417369
